According to the supplement of paper PMC7826260:
The other results are listed elsewhere or left out. Cleavage of a single-stranded DNA pool by Rep nickase domains was read by sequencing (1 h at 37 °C, 3 µM enzyme); the outer parts of the 90-letter strands are left off. Numbers give uncut DNA relative to the enzyme-free pool, as log2; more negative means more cut, near 0 not cut, and no call is made. The scaling is to total reads; where an enzyme cuts many sequences, the uncut ones exceed 0.

System: T1, Rep nickase domain of maize striate mosaic virus
T1 sequence (residues 1-117, tag not shown): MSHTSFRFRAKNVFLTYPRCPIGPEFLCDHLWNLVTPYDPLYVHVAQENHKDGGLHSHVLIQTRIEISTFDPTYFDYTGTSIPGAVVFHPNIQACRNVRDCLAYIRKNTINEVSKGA
Experiment: uncleaved DNA left, log2 of reads against the no-enzyme library (log2 ratio); higher = less cleavage (more negative = more Rep cleavage of the k-mer); sequences stand for … in CTCGTCCG…ACCGGAGA
Method: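 A pool of 90-nt single-stranded DNAs with seven random bases just before the constant AC of the nick site (name = the seven bases) was cut by 3 µM recombinant His6-SUMO-tagged Rep nickase domain (300 nM DNA, 50 mM HEPES pH 8.0, 50 mM NaCl, 1 mM MnCl2, 1 h, 37 °C, three replicates). Uncut DNA was amplified and sequenced.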

Sequence	uncleaved DNA left (log2)
CCGGATA	0.972
TCCACCT	-0.475
TCAACCC	-0.339
CAGAGAC	0.519
TTATTAG	-1.31
TTCCACG	-1.08
TGACCAG	-0.859
AGAAATG	0.573
GTTTGAA	1.62
CTACTAC	-0.607
ACATCAG	-0.61
GAAATCG	-0.996
TACCCTG	0.823
CTAAGGT	1.07
CGCCCGA	-0.6
TCTGGAT	1.83
TATTGAG	-0.457
TCCCCGT	-0.708
TGTGGGT	1.09
ATACCCT	0.425

Sequence	uncleaved DNA left (log2)
TTTTGTA	-0.613
TGTTGTA	-0.148
TTTGTCA	-0.186
CGGGAGT	1.59
CGCGTGG	0.444
CCCCGCG	-0.543
CCATCCG	-0.854
AGGCTGA	1.65
CGTCCAG	-0.853
CGTTTAG	-0.91
CCTATCC	-0.534
CCGAGCT	0.534
TGGAGGC	0.574
ACAGTGG	-1.23
AGAACTA	0.812
TGTCTCG	-1.09
CCAGATT	-0.312
CAGCACT	0.151
AGGTGAC	1.25
AGGGTTA	1.11
